Measurements from PubChem BioAssay AID651820 (National Center for Advancing Translational Sciences (NCATS), 2012).
Where “and” joins values, the source holds several entries; their conditions need not be identical. Equal values may be shown once. In all, about 340,000 compounds went through this assay and about 12,000 (3.5%) were called active. This list was built around the results that the source calls inconclusive (neither active nor inactive); the mix of calls is not that of the screen. Calls come from the whole dose curve; as a rule, active = well fitted inhibition curve with a large enough effect; inconclusive = small, poorly fitted or top-dose-only effect, or another doubt; inactive = no such curve, though single readings can be large or run the other way. No potency is given beside an inconclusive call; the fits are too rough.

Experiment: qHTS Assay for Inhibitors of Hepatitis C Virus (HCV)
Conditions: Huh7.5.1 HCVcc-Cre (HCVcc is cell-culture hepatitis C virus) infection, luciferase reporter, 44 h; series mostly up to 41.8 µM
Summary of the method: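 Infectious HCVcc-Cre (~0.5 moi) was added to cells just after compound, with cells seeded 4 h earlier at 1,000 per well. Luciferase activity after 44 h culture reported infection; substrate was incubated 15 min at room temperature before reading.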
Potency is the fitted concentration of half-maximal effect; tags give direction and shape of the fitted curve.

Compound	Potency
Cc1ccc(-c2nc(CS(=O)(=O)CC(=O)N3CCCCCC3)c(C)o2)cc1	inconclusive [inhibitor, partial curve]
Cc1c(NC(=O)c2cccc(NS(C)(=O)=O)c2)c(=O)n(-c2ccccc2)n1C	inactive
CCN1CCCC1CNc1ncnc2c1[nH]c1ccc(Cl)cc12 (stereo not given)	inconclusive [inhibitor, single point]
CCN(CC)CCCOC(=O)C1(c2ccccc2)CCCC1	inconclusive [inhibitor, single point]
O=c1oc2ccccc2cc1-c1nc2c(s1)CCCC2	inactive
C=CCC[C@@H](Cc1ccc(F)cc1)C(=O)OC[C@@H]1CCCN1C(=O)[C@H](CC=C)CC(=O)N[C@H](CO)Cc1ccccc1	active: 10 µM
CCc1ccc(NC(=O)CSc2nc(=O)n(CCN(C)C)c3c2CCCC3)cc1	inconclusive [inhibitor, single point]
CCN(CC)S(=O)(=O)c1cc(NC(=O)CN2C(=O)NC3(CCCc4ccccc43)C2=O)ccc1C (stereo not given)	inconclusive [inhibitor, single point]
Cc1ccc(CNC(=O)COC(=O)c2cccc(S(=O)(=O)N3CCCCC3)c2)cc1	inactive
Cc1nn(C)cc1NC(=O)CCSc1nc(-c2ccco2)cc(C(F)(F)F)n1	active: 3.55 µM and active: 11.2 µM
Cc1ccccc1NC1=NC(=S)N(c2ccccc2)C12CCCCC2	inactive
O=C1CCCN2N=C(SCC(=O)Nc3cccc(C(F)(F)F)c3)SC2=N1	active: 6.31 µM
Cc1c(C(=O)NN)sc(-c2ccccc2)c1C#N	inactive
Cn1cnc([N+](=O)[O-])c1Oc1ccc2ccccc2c1	inconclusive [inhibitor, partial curve]
COc1cccc(N(C(=O)Cn2nnc3ccccc32)C(C(=O)NCc2ccco2)c2cccnc2)c1 (stereo not given)	inconclusive [inhibitor, single point]
CCc1ccc(N2CC(C(=O)N/N=C/c3cccc([N+](=O)[O-])c3)CC2=O)cc1 (stereo not given)	inconclusive [inhibitor, partial curve]
COCc1c(C(=O)NCCc2ccc(OC(F)F)cc2)oc2ccccc12	inconclusive [inhibitor, single point]
Cc1ccc2nc3c(cc2c1)CC1(C(=O)N(C)C(=O)N(C)C1=O)C1CCCCN31 (stereo not given)	inconclusive [inhibitor, full curve]
COC(=O)C1=CN(CCOC23CC4CC(CC(C4)C2)C3)C=C(C(=O)OC)C1c1ccsc1	active: 31.6 µM
COc1cc([N+](=O)[O-])ccc1NC(=O)CSc1n[nH]c(C(C)C)n1	inactive
Cc1ccc(NC(=S)N(CCN(C)C)C(C)c2ccco2)cc1Cl (stereo not given)	inconclusive [inhibitor, single point]
Nc1ccc2ccc3cccc[n+]3c2c1	active: 7.08 µM
Cc1cc(NS(=O)(=O)c2ccc(NC(=O)c3cnc4sccn4c3=O)cc2)nc(C)n1	inactive

Compound	Potency
CCOc1ccc(/C=N/NS(=O)(=O)c2ccc(C)cc2)cc1OC	inactive
COc1ccc(-n2nc(C(=O)NCC(=O)Nc3ccccn3)c3ccccc3c2=O)cc1	inconclusive [inhibitor, single point]
CCCCCCn1c(SCC(=O)Nc2cc(C)on2)nc2ccccc2c1=O	inconclusive [inhibitor, single point]
CC1CCC2(CC1)OCC1(CCC3(COC4(CCC(C)CC4)OC3)C1=O)CO2 (stereo not given)	inactive
CCN(CC)c1ccc(NC(=O)C2CC3CCC2C3)cc1 (stereo not given)	inactive
CCN(CCCNC(=O)CCn1c(=O)[nH]c2ccccc2c1=O)c1cccc(C)c1	inconclusive [inhibitor, single point]
CC(=O)N1c2ccccc2N(Cc2ccc(C)cc2C)C(=O)C1(C)C	inconclusive [inhibitor, partial curve]
COc1ccc(CCNC(=O)C(Sc2ccccn2)c2ccccc2)cc1OC (stereo not given)	inconclusive [inhibitor, full curve, poor fit]
Cc1ccn2c(CNCCCn3cccn3)c(C(=O)N3CCCCCC3)nc2c1	inactive
COc1ccc(-c2cc3nc(C)cc(N4CC(C)CC(C)C4)n3n2)cc1 (stereo not given)	inconclusive [inhibitor, single point]
CC(C)OC(=O)c1ccc(NCc2cc(O)ccc2O)cc1Cl	active: 6.31 µM
COC(=O)c1ccc(COc2ccccc2/C=C(\C#N)C(=O)Nc2c(C)cc(C)cc2C)cc1	inconclusive [inhibitor, full curve]
CC1(C)NC(=O)N(CC(=O)N2CCN(c3cccc(Cl)c3)CC2)C1=O	inactive
COc1ccc(C(C)=O)cc1CSc1nnc(Nc2ccccc2C)s1	inconclusive [inhibitor, partial curve]
CC(C)Cn1c(N)c(C=O)c(=O)[nH]c1=O	inconclusive [inhibitor, single point]
COc1cc(OC)cc(C(=O)N=c2sc3ccccc3n2C)c1	inactive
CCOC(=O)c1cc(-c2ccccc2)sc1NC(=O)COC(=O)c1cccc(S(N)(=O)=O)c1	inconclusive [inhibitor, full curve, poor fit]
COc1ccc(-c2cc(C(F)(F)F)nc(SCC(=O)NCc3cccs3)n2)cc1OC	inconclusive [inhibitor, partial curve]
COc1ccccc1N1CCN(C2CCN(S(=O)(=O)c3ccc4ccccc4c3)CC2)CC1	active: 14.1 µM
CCN(CC)S(=O)(=O)c1ccc(N2CCOCC2)c(NC(=O)Cc2ccc(Cl)cc2)c1	inconclusive [inhibitor, single point]
CC(C)CC(COCc1ccc(Cl)cc1)N1CCN(C(=O)c2cccc(C(F)(F)F)c2)CCC1=O (stereo not given)	inconclusive [inhibitor, single point]
COc1ccccc1/C=C/C(=O)OCC(=O)N1CCN(S(=O)(=O)c2ccc(C)cc2C)CC1	inconclusive [inhibitor, single point]
